# Assay results reported in the supplement of paper PMC8728848.
# The other results are listed elsewhere or left out.
# B1: BC2LB (Burholderia cenocepacia), B4EH85_BURCJ (protein)
# chain: MGSSHHHHHHSSGENLYFQGHMSQPFTHDDLYALLQLAGNDATAVQANGDQAVLDRMRQFMTAQLVEKLPQYDVFVDIATIPYSFDVGSWQNKVKTDAAGEVVACTVTWAGAPGVLPGAAAKFGVGAVVNYFSKATPH
# What was measured:
# Assay in all cases: glycan array binding signal (z-score within array); higher = stronger binding
# Settings in all cases: glycan notation: IUPAC condensed, linker removed
# [1] = biological target: Gal6S(b1-4)Glc
# In short: (§1)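 The Consortium for Functional Glycomics database supplied 3228 glycan arrays, of which those lacking an available protein sequence were dropped. The binding signal, a within-array Z-score, was averaged across arrays of the same protein sequence and across linkers. Negative scores can be read as non-binding.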
# [2] = biological target: Gal6S(b1-4)Glc6S
# In short: as §1
# [3] = biological target: Gal6S(b1-4)GlcNAc
# In short: as §1
# [4] = biological target: Gal6S(b1-4)GlcNAc6S
# In short: as §1
# [5] = biological target: GalNAc(a1-3)Gal
# In short: as §1
# [6] = biological target: GalNAc(a1-3)GalNAc
# In short: as §1
# [7] = biological target: GalNAc(a1-3)GalNAc(b1-3)Gal(a1-4)Gal(b1-4)Glc
# In short: as §1
# [8] = biological target: GalNAc(a1-3)GalNAc(b1-3)Gal(a1-4)Gal(b1-4)GlcNAc
# In short: as §1
# [9] = biological target: GalNAc(b1-3)Gal
# In short: as §1
# [10] = biological target: GalNAc(b1-3)Gal(a1-4)Gal(b1-4)GlcNAc
# In short: as §1
# [11] = biological target: GalNAc(b1-3)Gal(a1-4)Gal(b1-4)GlcNAc(b1-3)Gal(b1-4)Glc
# In short: as §1
# [12] = biological target: GalNAc(b1-3)Gal(a1-6)Gal(b1-4)Glc
# In short: as §1
# [13] = biological target: GalNAc(b1-3)GalNAc
# In short: as §1
# [14] = biological target: GalNAc(b1-3)GlcNAc
# In short: as §1
# [15] = biological target: GalNAc(b1-4)Gal(b1-4)Glc
# In short: as §1
# [16] = biological target: GalNAc(b1-4)GlcNAc
# In short: as §1
# [17] = biological target: GalNAc(b1-4)GlcNAc(b1-2)Man
# In short: as §1
# [18] = biological target: GalNAc(b1-4)GlcNAc(b1-2)Man(a1-3)[GalNAc(b1-4)GlcNAc(b1-2)Man(a1-6)]Man(b1-4)GlcNAc(b1-4)GlcNAc
# In short: as §1
# [19] = biological target: GalNAc(b1-4)GlcNAc(b1-3)GalNAc(b1-4)GlcNAc
# In short: as §1
# [20] = biological target: GalNAc(b1-4)GlcNAc6S
# In short: as §1
# [21] = biological target: GalNAc(b1-6)GalNAc
# In short: as §1
# [22] = biological target: GalNAc3S(b1-4)GlcNAc
# In short: as §1
# [23] = biological target: GalNAc3S(b1-4)GlcNAc3S
# In short: as §1
# [24] = biological target: GalNAc3S(b1-4)[Fuc(a1-3)]GlcNAc
# In short: as §1
# [25] = biological target: GalNAc4S6S(b1-4)GlcNAc
# In short: as §1
# [26] = biological target: GalNAc6S(b1-4)GlcNAc
# In short: as §1
# [27] = biological target: Glc(a1-4)Glc
# In short: as §1
# [28] = biological target: Glc(a1-4)Glc(a1-4)Glc(a1-4)Glc
# In short: as §1
# [29] = biological target: Glc(a1-6)Glc(a1-6)Glc
# In short: as §1
# [30] = biological target: Glc(a1-6)Glc(a1-6)Glc(a1-6)Glc
# In short: as §1
# [31] = biological target: Glc(b1-4)Glc
# In short: as §1
# [32] = biological target: Glc(b1-6)Glc
# In short: as §1
# [33] = biological target: GlcA(b1-3)Gal
# In short: as §1
# [34] = biological target: GlcA(b1-3)GlcNAc
# In short: as §1
# [35] = biological target: GlcA(b1-6)Gal
# In short: as §1
# [36] = biological target: GlcA3S(b1-3)Gal(b1-4)GlcNAc(b1-2)Man
# In short: as §1
# [37] = biological target: GlcA3S(b1-3)Gal(b1-4)GlcNAc(b1-3)Gal(b1-4)Glc
# In short: as §1
# [38] = biological target: GlcNAc(a1-3)Gal(b1-4)GlcNAc
# In short: as §1
# [39] = biological target: GlcNAc(a1-4)Gal(b1-3)GlcNAc
# In short: as §1
# [40] = biological target: GlcNAc(a1-4)Gal(b1-4)GalNAc
# In short: as §1
# [41] = biological target: GlcNAc(a1-4)Gal(b1-4)GlcNAc
# In short: as §1
# [42] = biological target: GlcNAc(a1-4)Gal(b1-4)GlcNAc(b1-3)Gal(b1-4)Glc
# In short: as §1
# [43] = biological target: GlcNAc(a1-4)Gal(b1-4)GlcNAc(b1-3)Gal(b1-4)GlcNAc
# In short: as §1
# [44] = biological target: GlcNAc(a1-4)Gal(b1-4)GlcNAc(b1-3)Gal(b1-4)GlcNAc(b1-3)Gal(b1-4)GlcNAc
# In short: as §1
# [45] = biological target: GlcNAc(a1-4)Gal(b1-4)GlcNAc(b1-3)Gal(b1-4)[Fuc(a1-3)]GlcNAc(b1-3)Gal(b1-4)[Fuc(a1-3)]GlcNAc
# In short: as §1
binder,measurement,setting,value
B1,glycan array binding signal (z-score),[1],-0.305
same,glycan array binding signal (z-score),[2],-0.207
same,glycan array binding signal (z-score),[3],-0.289
same,glycan array binding signal (z-score),[4],-0.225
same,glycan array binding signal (z-score),[5],-0.199
same,glycan array binding signal (z-score),[6],-0.19
same,glycan array binding signal (z-score),[7],-0.232
same,glycan array binding signal (z-score),[8],-0.055
same,glycan array binding signal (z-score),[9],1.32
same,glycan array binding signal (z-score),[10],-0.035
same,glycan array binding signal (z-score),[11],0.037
same,glycan array binding signal (z-score),[12],0.063
same,glycan array binding signal (z-score),[13],-0.258
same,glycan array binding signal (z-score),[14],-0.254
same,glycan array binding signal (z-score),[15],0.361
same,glycan array binding signal (z-score),[16],-0.011
same,glycan array binding signal (z-score),[17],-0.204
same,glycan array binding signal (z-score),[18],-0.156
same,glycan array binding signal (z-score),[19],-0.282
same,glycan array binding signal (z-score),[20],-0.201
same,glycan array binding signal (z-score),[21],-0.289
same,glycan array binding signal (z-score),[22],-0.231
same,glycan array binding signal (z-score),[23],-0.264
same,glycan array binding signal (z-score),[24],-0.402
same,glycan array binding signal (z-score),[25],-0.267
same,glycan array binding signal (z-score),[26],-0.3
same,glycan array binding signal (z-score),[27],-0.138
same,glycan array binding signal (z-score),[28],-0.254
same,glycan array binding signal (z-score),[29],-0.061
same,glycan array binding signal (z-score),[30],-0.041
same,glycan array binding signal (z-score),[31],0.043
same,glycan array binding signal (z-score),[32],0.216
same,glycan array binding signal (z-score),[33],-0.263
same,glycan array binding signal (z-score),[34],-0.145
same,glycan array binding signal (z-score),[35],-0.214
same,glycan array binding signal (z-score),[36],-0.286
same,glycan array binding signal (z-score),[37],-0.222
same,glycan array binding signal (z-score),[38],-0.134
same,glycan array binding signal (z-score),[39],-0.346
same,glycan array binding signal (z-score),[40],-0.265
same,glycan array binding signal (z-score),[41],-0.363
same,glycan array binding signal (z-score),[42],-0.27
same,glycan array binding signal (z-score),[43],-0.246
same,glycan array binding signal (z-score),[44],-0.337
same,glycan array binding signal (z-score),[45],1.79
